Data from PMC4336329 (PLoS ONE, 2015).
Among all 310,000 compounds or so, about 2,200 (0.71%) showed an effect of 50% or more. Effects have a minus sign here. This is one part of the list. Where a SMILES comes first, the peptide text is derived from it. The star is where a group is joined. Boc = CC(C)(C)OC(=O)*

Molecular target: human ether-à-go-go-related gene (hERG) potassium channel (human, UniProt Q12809)
Assay: primary screen, population patch clamp on CHO cells stably expressing hERG

Sequence of human ether-à-go-go-related gene (hERG) potassium channel (Q12809 whole entry, looked up): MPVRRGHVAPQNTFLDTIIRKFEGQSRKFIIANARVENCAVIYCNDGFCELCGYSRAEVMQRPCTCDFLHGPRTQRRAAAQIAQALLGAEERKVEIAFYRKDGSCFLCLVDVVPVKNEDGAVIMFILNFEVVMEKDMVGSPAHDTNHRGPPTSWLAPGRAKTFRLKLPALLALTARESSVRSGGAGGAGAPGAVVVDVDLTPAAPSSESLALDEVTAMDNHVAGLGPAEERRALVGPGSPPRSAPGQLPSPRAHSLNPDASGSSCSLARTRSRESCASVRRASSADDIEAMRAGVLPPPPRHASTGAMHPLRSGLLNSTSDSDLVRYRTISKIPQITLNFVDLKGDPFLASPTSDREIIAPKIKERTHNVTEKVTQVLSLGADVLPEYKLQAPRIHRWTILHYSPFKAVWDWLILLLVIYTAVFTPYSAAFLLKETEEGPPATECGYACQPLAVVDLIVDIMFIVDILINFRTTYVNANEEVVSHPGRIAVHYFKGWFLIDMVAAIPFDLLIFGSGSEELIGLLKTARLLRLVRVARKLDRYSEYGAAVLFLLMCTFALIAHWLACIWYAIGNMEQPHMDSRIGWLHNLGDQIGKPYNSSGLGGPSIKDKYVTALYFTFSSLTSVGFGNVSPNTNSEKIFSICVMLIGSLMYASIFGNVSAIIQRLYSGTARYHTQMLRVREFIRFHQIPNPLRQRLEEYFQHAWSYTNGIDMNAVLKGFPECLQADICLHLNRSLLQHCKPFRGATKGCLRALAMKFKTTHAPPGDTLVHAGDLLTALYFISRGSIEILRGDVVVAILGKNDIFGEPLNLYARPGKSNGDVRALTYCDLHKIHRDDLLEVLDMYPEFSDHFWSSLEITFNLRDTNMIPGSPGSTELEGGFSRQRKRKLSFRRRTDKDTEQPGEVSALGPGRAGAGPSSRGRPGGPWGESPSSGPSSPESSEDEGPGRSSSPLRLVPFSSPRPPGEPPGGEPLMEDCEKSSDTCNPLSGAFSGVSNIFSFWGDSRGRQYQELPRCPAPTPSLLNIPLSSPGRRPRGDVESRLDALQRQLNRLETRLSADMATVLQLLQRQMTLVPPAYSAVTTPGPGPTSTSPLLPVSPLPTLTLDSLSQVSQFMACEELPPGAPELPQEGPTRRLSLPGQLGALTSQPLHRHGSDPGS

SMILES | hERG current change (%, negative = inhibition) at 1uM [%]
Cc1nn(Cc2ccc(F)cc2)c(C)c1NC(=O)c1cnn2c1NC(c1cccs1)CC2C(F)(F)F (stereo not shown) | 5.29
COc1ccc(-c2nc3ccccc3s2)cc1O | -2.25
COc1ccccc1N1CCN(c2ccc([N+](=O)[O-])cn2)CC1 | 9.69
COc1ccc(N(CC(=O)Nc2ccc(F)c(F)c2)S(=O)(=O)c2c(C)n[nH]c2C)cc1 | 17.1
CC(=O)Nc1ccc(SCC(=O)c2c(N)n(Cc3ccccc3)c(=O)n(C)c2=O)cc1 | 13.6
Cc1ccc(OCC(=O)N/N=C2/SCC(=O)N2Cc2ccco2)cc1 | 0.387
CC1CCN(C(=O)C2COc3ccccc3O2)CC1 (stereo not shown) | 8.71
c1coc(CNc2nc3nonc3nc2NCc2ccco2)c1 | -9.99
Cl.c1ccc2c(NCC3CCCO3)nc(N3CCOCC3)nc2c1 (stereo not shown) | -12.3
CC(=O)[C@@]1(O)CCC2C3C=CC4=CC(=O)CC[C@]4(C)C3CC[C@@]21C (stereo partly shown) | -4.5
Cc1cc(=O)[nH]c(SCC(=O)Nc2ccccc2[N+](=O)[O-])n1 | 9.89
O=C(NCc1cccs1)c1cc(-c2ccccc2)on1 | 0.848
COc1cc(NC(=O)CSc2nc3ccccc3cc2Cc2ccccc2)cc(OC)c1 | 11.5
CSCCC(NC(=O)OC(C)(C)C)C(=O)NC(C(=O)NC(CC(C)C)C(N)=O)C(C)C (stereo not drawn) (Boc-Met-Val-Leu-NH2; configuration not given here) | 10.6
COc1ccc(N2CCN(CCNC(=O)Nc3cc(Cl)ccc3OC)CC2)cc1 | 5.47
CCCc1cc(=O)oc2c3c(cc(OCC(=O)NCc4ccncc4)c12)OC(C)(C)CC3 | -2.85
Cc1cc(C(=O)N/N=C(\CCC(=O)O)c2cccs2)c2ccccc2n1 | 10.2
O=C(COc1ccc(Br)cc1)Nc1ccc([N+](=O)[O-])cn1 | 10.3
Cn1c2ccccc2c2nnc(SCc3ccc4nonc4c3)nc21 | 8.6
CC(C)OC(=O)C(=O)NNc1ccccc1 | -5.99
COC(=O)c1ccccc1NC(=O)Nc1cnccn1 | 14.2
CC(C)(C)OC(=O)N[C@@H](/C=C/c1ccccc1)C(=O)OC(C)(C)C | -1.92
NC(=O)CCCC1=NS(=O)(=O)c2ccccc2N1 | 8.78

SMILES | hERG current change (%, negative = inhibition) at 1uM [%]
O=C(CCN1C(=O)/C(=C\c2cccs2)SC1=S)NC1=NCCS1 | 6.28
CCOc1ccc(/C=N/NC(=O)c2[nH]c3ccc(C)cc3c2C)cc1 | 10.8
Cn1nccc1NC(=O)Nc1ccc(Cl)cc1 | 19.8
O=C(c1cccs1)N1CCOCC1 | 7.08
COc1cccc(OC)c1NC(=O)CN1CCN(C)CC1.O=C(O)C(=O)O | 10.4
Cc1onc(-c2c(Cl)cccc2Cl)c1C(=O)c1c[nH]c(C(=O)NCCCN2CCOCC2)c1 | 5.12
Cc1cccc(N(C)C(=O)c2cc(S(=O)(=O)N3CCCCC3)c[nH]2)c1 | 8.15
CCN(CC)C(=O)c1cn(CCC#N)nc1-c1ccc2ccccc2c1 | 13.4
CCOC(=O)C(Oc1ccc(=O)[nH]n1)C(C)=O (stereo not shown) | -2.41
CCN(CC)S(=O)(=O)c1ccc2c(c1)nc(CCC(=O)OCc1c(C)noc1C)n2C | -0.101
O=C(OCCCc1cc2ccccc2c(=O)o1)c1ccco1 | 9.13
CCOc1ccc(NC(=O)CCN2C(=S)NC(C)(C)CC2C)cc1 (stereo not shown) | 2.55
CCN(C(=O)COC(=O)c1ccccc1NCCO)C1CCS(=O)(=O)C1 (stereo not shown) | 8.53
COCCN(C(=O)c1cc2c(s1)CCCCC2)c1c(N)n(CC(C)C)c(=O)[nH]c1=O | 6.69
CCCCN(C(=O)c1cc(=O)[nH]c2ccccc12)c1c(N)n(CCCC)c(=O)[nH]c1=O | 7.08
S=c1[nH]nc(-c2ccccc2)n1C1C=CCCC1 (stereo not shown) | 6.31
Cc1cc(C)n(-c2nnc(NC(C)(C)C)nn2)n1 | 18.6
Fc1ccc(-n2c(CN3CCCCC3)n[nH]c2=S)cc1 | 11.1
CC(=O)c1c(C)[nH]c(C(=O)NCc2ccc(F)cc2)c1C | 13.1
COc1ccc(S(=O)(=O)n2[nH]c(=O)c(CCO)c2C)cc1 | 11.7
CCOc1ccc(-n2c(=S)sc3c(=O)n(-c4ccccc4)c(SC)nc32)cc1 | 10.4
COc1ccc(CCNC(=O)CSc2nc3c(c(=O)n(C)c(=O)n3C)n2C)cc1OC | 13.1
CC(NC(N)=O)C(=O)OCc1ccc(Cl)cc1Cl (stereo not shown) | 12.3

SMILES | hERG current change (%, negative = inhibition) at 1uM [%]
Cc1cc(C)nc(SCc2ccc(C(=O)N/N=C/c3ccco3)cc2)n1 | -4.21
C=CCn1c(SCc2ccccc2)nnc1-c1cccnc1 | -4.29
Cc1ccccc1N1CC(C(=O)N2CC(C)CC(C)C2)CC1=O (stereo not shown) | 0.657
COc1ccc(CCNC(=O)c2c(O)c3ccccc3[nH]c2=O)cc1OC | 12.5
COc1cccc(CN(C)C(=O)CNC(=O)c2cccs2)c1OC | 9.62
Cc1cc(N)ccc1NC(=O)CN1CCOCC1 | 10.8
COC(=O)c1cc(Cl)c(NC(=O)c2cc(OC)c(OC)c(OC)c2)cc1OC | 8.03
COc1ccc(-n2nc(C(=O)NCc3ccco3)c3ccccc3c2=O)cc1 | -0.17
Cc1ccnn1CCC(=O)N1CCCC(CCC(=O)N2CCN(c3ccccn3)CC2)C1 (stereo not shown) | -11.6
Cc1cc(C)cc(NC(=S)NC2CC3CCCC(C2)N3C2CCCC2)c1 (stereo not shown) | -52.3
Cc1ccc(C(=O)Nc2ccc(NC(=O)c3cccs3)cc2)cc1[N+](=O)[O-] | 15.7
O=C(O)c1ccccc1NC(=O)C1CCCO1 (stereo not shown) | 14.2
Cc1cccc(OCC(=O)Nc2ncn[nH]2)c1C | 11.3
O=S(=O)(Nc1ccc(N2CCOCC2)nn1)c1ccccc1 | 5.63
COCCNC(=O)COC(=O)c1nsc(Cl)c1Cl | -1.11
COc1ccc(CCN2C(=O)C3CC(C)=C(C)CC3C2=O)cc1OC (stereo not shown) | 4.22
CN(CC(=O)Nc1cccc(F)c1)C(=O)Cn1c(=O)oc2ccccc21 | 13.6
CCOc1ccccc1NC(=O)CCCNC(=O)Cn1cnc2sc(C)c(C)c2c1=O | 13.7
CCC(CC)C(=O)NCCc1ccc(OC)c(OC)c1 | 11.9
COc1ccc(CCC(C)NCc2ccc(Cl)c(Cl)c2)cc1 (stereo not shown) | 4.58
CCCCNC(=O)N1CCN(S(C)(=O)=O)CC1 | 7.1
CCOC(=O)c1[nH]c(C)c(CC(C)C)c1C | 15.2
O=C1CCCc2ccccc2N1Cc1cccc(Cl)c1 | 1.68

SMILES | hERG current change (%, negative = inhibition) at 1uM [%]
Clc1ccc(OCCn2cnc3ccccc32)cc1 | 3.04
Fc1ccc(-[n+]2nc(Nc3ccccc3)sc2-c2ccc(OCc3ccccc3)cc2)cc1.[Cl-] | 9.81
CCCCN1CC(=O)N2[C@H]3c4cc(C)ccc4OC[C@@H]3[C@H](C(=O)OCC)[C@]2(C)C1=O | 4.72
COc1ccc(-c2cc(C(=O)NCCN3CCOCC3)no2)cc1OC | 15
Cc1occc1C(=O)N/N=C/C1=C(N2CCOCC2)C(=C\c2ccc(Cl)cc2Cl)/CC1 | 22.2
CCCCCCn1c(=O)c(C(=O)Nc2nc(CC(=O)OCC)cs2)c(O)c2ccccc21 | 12.5
COCCN(C(=S)Nc1cc(C)cc(C)c1)C(C)c1cccnc1 (stereo not shown) | -4.04
COc1ccc(Nc2nc(N)nc(CSc3nccn3C)n2)cc1 | 1.75
CC(=O)Nc1cccc(NC(C)=O)n1 | 11.8
Cc1ccc(-c2noc(C3CCN(C(=O)Nc4ccc(C#N)cc4)CC3)n2)o1 | -32.2
Cc1nc(SCC(=O)NCCc2ccccc2)n[nH]1 | 8.05
C/C(=N/NC(=O)CNC(=O)/C=C/c1ccccc1)c1ccco1 | 10.7
COc1cc(/C=C2/SC(=S)N(CC3CCCO3)C2=O)ccc1O (stereo not shown) | 13.9
O=C(Cn1cc(C(=O)C(F)(F)F)c2ccccc21)N1CCOCC1 | 14.4
CCCCn1c(=O)[nH]c2ccccc21 | 10.3
COc1ccc(NC(=O)COc2ccccc2F)cc1S(=O)(=O)N1CCCCC1 | 8.72
CC1CCCN(C(=O)C2CCC(CNc3c(N4CCCCC4)c(=O)c3=O)CC2)C1 (stereo not shown) | -1.43
O=C(COC(=O)C1CCN(c2ccc(C(F)(F)F)cn2)CC1)Nc1ccc(F)cc1[N+](=O)[O-] | 15.1
COc1ccc2cnnc(SCC(=O)Nc3ccccc3)c2c1OC | -6.53
O=C(Nc1ccc(Cl)c(Cl)c1)c1ccco1 | 13.4
CC1CC(C)CN(S(=O)(=O)c2ccc3c(c2)CCN3C(=O)C2CC2)C1 (stereo not shown) | 7.95
Cc1ccc(NC(=O)c2cc(-c3ccco3)nc3ccccc23)cc1S(=O)(=O)N1CCOCC1 | 11
